Measured values taken from the supplement of paper PMC8728848.
The other results are listed elsewhere or left out.

How the values were obtained:
Assay in all cases: glycan array binding signal (z-score within array); higher = stronger binding
Settings in all cases: glycan notation: IUPAC condensed, linker removed; mutation: Y228A
[1] = target: Man(a1-2)Man(a1-3)[Man(a1-2)Man(a1-6)]Man
Summary of the method: (§1)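 Glycan array data were curated from 3228 arrays in the Consortium for Functional Glycomics database and kept only where the protein sequence was available. Glycan names were converted to IUPAC-condensed notation, and columns mapping to the same glycan were averaged. The binding signal is a within-array Z-score, averaged across arrays of the same protein sequence at different concentrations or buffers and across linkers. Negative Z-scores can be read as non-binding.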

[2] = target: Man(a1-2)Man(a1-3)[Man(a1-2)Man(a1-6)]Man(a1-6)[Man(a1-2)Man(a1-2)Man(a1-3)]Man
Summary of the method: as §1

[3] = target: Man(a1-2)Man(a1-3)[Man(a1-2)Man(a1-6)]Man(a1-6)[Man(a1-2)Man(a1-2)Man(a1-3)]Man(b1-4)GlcNAc(b1-4)GlcNAc
Summary of the method: as §1

[4] = target: Man(a1-2)Man(a1-3)[Man(a1-6)]Man(a1-6)[Man(a1-2)Man(a1-3)]Man(b1-4)GlcNAc(b1-4)GlcNAc
Summary of the method: as §1

[5] = target: Man(a1-2)Man(a1-6)[Man(a1-3)]Man(a1-6)[Man(a1-2)Man(a1-2)Man(a1-3)]Man
Summary of the method: as §1

[6] = target: Man(a1-2)Man(a1-6)[Man(a1-3)]Man(a1-6)[Man(a1-2)Man(a1-2)Man(a1-3)]Man(b1-4)GlcNAc(b1-4)GlcNAc
Summary of the method: as §1

Man(a1-3)[Man(a1-6)]Man = target: Man(a1-3)[Man(a1-6)]Man
Summary of the method: as §1

[7] = target: Man(a1-3)[Man(a1-6)]Man(a1-6)[Man(a1-2)Man(a1-3)]Man(b1-4)GlcNAc(b1-4)GlcNAc
Summary of the method: as §1

[8] = target: Man(a1-3)[Man(a1-6)]Man(a1-6)[Man(a1-3)]Man
Summary of the method: as §1

[9] = target: Man(a1-3)[Man(a1-6)]Man(a1-6)[Man(a1-3)]Man(b1-4)GlcNAc(b1-4)GlcNAc
Summary of the method: as §1

[10] = target: Man(a1-3)[Man(a1-6)]Man(b1-4)GlcNAc(b1-4)GlcNAc
Summary of the method: as §1

[11] = target: Man(a1-3)[Man(a1-6)]Man(b1-4)GlcNAc(b1-4)[Fuc(a1-6)]GlcNAc
Summary of the method: as §1

Man(a1-6)Man = target: Man(a1-6)Man
Summary of the method: as §1

Man(b1-4)GlcNAc = target: Man(b1-4)GlcNAc
Summary of the method: as §1

MurNAc(b1-4)GlcNAc = target: MurNAc(b1-4)GlcNAc
Summary of the method: as §1

Neu5Ac(a2-3)Gal = target: Neu5Ac(a2-3)Gal
Summary of the method: as §1

[12] = target: Neu5Ac(a2-3)Gal(b1-3)GalNAc
Summary of the method: as §1

[13] = target: Neu5Ac(a2-3)Gal(b1-3)GalNAc(b1-3)Gal(a1-4)Gal(b1-4)Glc
Summary of the method: as §1

[14] = target: Neu5Ac(a2-3)Gal(b1-3)GalNAc(b1-4)Gal(b1-4)Glc
Summary of the method: as §1

[15] = target: Neu5Ac(a2-3)Gal(b1-3)GalNAc(b1-4)[Neu5Ac(a2-3)]Gal(b1-4)Glc
Summary of the method: as §1

[16] = target: Neu5Ac(a2-3)Gal(b1-3)GalNAc(b1-4)[Neu5Ac(a2-8)Neu5Ac(a2-3)]Gal(b1-4)Glc
Summary of the method: as §1

[17] = target: Neu5Ac(a2-3)Gal(b1-3)GalNAc6S
Summary of the method: as §1

[18] = target: Neu5Ac(a2-3)Gal(b1-3)GlcNAc
Summary of the method: as §1

[19] = target: Neu5Ac(a2-3)Gal(b1-3)GlcNAc(b1-2)Man
Summary of the method: as §1

[20] = target: Neu5Ac(a2-3)Gal(b1-3)GlcNAc(b1-2)Man(a1-3)[GlcNAc(b1-4)][Neu5Ac(a2-3)Gal(b1-3)GlcNAc(b1-2)Man(a1-6)]Man(b1-4)GlcNAc(b1-4)GlcNAc
Summary of the method: as §1

[21] = target: Neu5Ac(a2-3)Gal(b1-3)GlcNAc(b1-2)Man(a1-3)[Neu5Ac(a2-3)Gal(b1-3)GlcNAc(b1-2)Man(a1-6)]Man(b1-4)GlcNAc(b1-4)GlcNAc
Summary of the method: as §1

[22] = target: Neu5Ac(a2-3)Gal(b1-3)GlcNAc(b1-2)[Neu5Ac(a2-3)Gal(b1-3)GlcNAc(b1-4)]Man(a1-6)[Neu5Ac(a2-3)Gal(b1-3)GlcNAc(b1-2)Man(a1-3)]Man(b1-4)GlcNAc(b1-4)GlcNAc
Summary of the method: as §1

[23] = target: Neu5Ac(a2-3)Gal(b1-3)GlcNAc(b1-3)Gal(b1-3)GlcNAc
Summary of the method: as §1

[24] = target: Neu5Ac(a2-3)Gal(b1-3)GlcNAc(b1-3)Gal(b1-4)GlcNAc
Summary of the method: as §1

[25] = target: Neu5Ac(a2-3)Gal(b1-3)GlcNAc(b1-3)GalNAc
Summary of the method: as §1

[26] = target: Neu5Ac(a2-3)Gal(b1-3)GlcNAc(b1-6)GalNAc
Summary of the method: as §1

[27] = target: Neu5Ac(a2-3)Gal(b1-3)GlcNAc6S
Summary of the method: as §1

[28] = target: Neu5Ac(a2-3)Gal(b1-3)[Fuc(a1-4)]GlcNAc
Summary of the method: as §1

[29] = target: Neu5Ac(a2-3)Gal(b1-3)[Fuc(a1-4)]GlcNAc(b1-3)Gal(b1-3)[Fuc(a1-4)]GlcNAc
Summary of the method: as §1

[30] = target: Neu5Ac(a2-3)Gal(b1-3)[Fuc(a1-4)]GlcNAc(b1-3)Gal(b1-4)[Fuc(a1-3)]GlcNAc
Summary of the method: as §1

[31] = target: Neu5Ac(a2-3)Gal(b1-3)[GlcNAc(b1-6)]GalNAc
Summary of the method: as §1

[32] = target: Neu5Ac(a2-3)Gal(b1-3)[Neu5Ac(a2-6)]GalNAc
Summary of the method: as §1

[33] = target: Neu5Ac(a2-3)Gal(b1-3)[Neu5Ac(a2-6)]GlcNAc(b1-3)[Fuc(a1-3)[Gal(b1-4)]GlcNAc(b1-6)]Gal(b1-4)Glc
Summary of the method: as §1

B1: Epa1-NP-mutant-Y228A (Candida glabrata), Q6VBJ0 (protein)
chain: MILNPALFLNKCVCIYTTLILLLLTNGGYATSSNDISLASKDPTTFPLGCSPDITTPKKGLSMELYSYDFRKKGSYPCWDAAYLDPNYPRTGYKSHRLLAKVDGVTGNINFYYHATKGCTPQLGHLPASYNYPKPLTMTNFTMLLYGYFRPKVTGFHTFTISADDLLFVNFGAGNAFDCCRRDSSADHFGNYQAYAIWGSKTAKDELTVHLDAGVYYPIRLFYNNREADGALSFTFKTESNENTVSDFSEYFFSLDDTEEGCPGLISYDSSCASVKTSKIIGIDYHTETPNENLVPITKTIYHLGIPCTGTTTTPLCGSGFYDPLANKCVTINTSSTSSVTKTTSHTTSKEVSFHSSISSQKTLIPKSIPSPYGPIKSQSIPTEMETSSEISSSEYAFSDVISTPSHSPYTKKHSSLNSSSYTSTVIHSLTSYSISQGIFSTSLSEQNITSKSSTDKFSTATSMSNNITQSSIIISQFSTNNENYTTTSMHTSSDKISTETLNNSISTTTSILFSNSSTILKNNTTIISSDKDTHYHPVNPTIVCSTNKTEIICASITQPSISNSNNHWSSSVLKFNSTTVRSTLPSSAGSNETSINVPFSSSTESNTSTSSTSTSNSKMVRSTLPSSAGSNETSISVPFSSSTESNTSTSSTSTSNSKMVRSTLPSSAGSNETSINVPFSSSTESNTSTSSTSTSNSKTVRSTPFSSAGIIMTSLSQRNNKSASSYASSNSKCYNTADSCRKVHSTPSYLLTSSYTSEGVDYDCSLVSTKLKINDTNCVNNKHTTKSCLKTSVTTTIPTLEIKTARKSSSNTIGLHSYPTSSPNKSISSAPIIGYISSFKTIKTASPSYQTSDLTTITTITSLNNPGSTAVENTHESNDKSRKTSSNDISSKHSVIKETKDAVESSNKSHQTNTLKCSSIIIASSSHNSYESLGGTTLTLTLSKVYSPQNNDTLPFLEISEVNPSRTVLPESSKMMQYLTSTEERNKTARNTIATNIVSISTFHFEGEGNAIRMGYTQLLLMLIGIIVMNIGT
glycan array binding signal (z-score) [1]: -0.117
glycan array binding signal (z-score) [2]: -0.302
glycan array binding signal (z-score) [3]: -0.389
glycan array binding signal (z-score) [4]: -0.291
glycan array binding signal (z-score) [5]: -0.215
glycan array binding signal (z-score) [6]: -0.23
glycan array binding signal (z-score) (Man(a1-3)[Man(a1-6)]Man): -0.255
glycan array binding signal (z-score) [7]: -0.126
glycan array binding signal (z-score) [8]: -0.287
glycan array binding signal (z-score) [9]: -0.219
glycan array binding signal (z-score) [10]: -0.161
glycan array binding signal (z-score) [11]: -0.064
glycan array binding signal (z-score) (Man(a1-6)Man): -0.192
glycan array binding signal (z-score) (Man(b1-4)GlcNAc): -0.188
glycan array binding signal (z-score) (MurNAc(b1-4)GlcNAc): -0.126
glycan array binding signal (z-score) (Neu5Ac(a2-3)Gal): -0.247
glycan array binding signal (z-score) [12]: -0.298
glycan array binding signal (z-score) [13]: -0.275
glycan array binding signal (z-score) [14]: -0.014
glycan array binding signal (z-score) [15]: -0.242
glycan array binding signal (z-score) [16]: -0.09
glycan array binding signal (z-score) [17]: -0.313
glycan array binding signal (z-score) [18]: -0.167
glycan array binding signal (z-score) [19]: -0.265
glycan array binding signal (z-score) [20]: -0.266
glycan array binding signal (z-score) [21]: -0.12
glycan array binding signal (z-score) [22]: 0.002
glycan array binding signal (z-score) [23]: -0.295
glycan array binding signal (z-score) [24]: -0.327
glycan array binding signal (z-score) [25]: -0.243
glycan array binding signal (z-score) [26]: -0.295
glycan array binding signal (z-score) [27]: -0.164
glycan array binding signal (z-score) [28]: -0.24
glycan array binding signal (z-score) [29]: -0.128
glycan array binding signal (z-score) [30]: -0.243
glycan array binding signal (z-score) [31]: -0.217
glycan array binding signal (z-score) [32]: -0.228
glycan array binding signal (z-score) [33]: -0.172
